PMC9911399, “Two distinct binding modes provide the RNA-binding protein RbFox with extraordinary sequence specificity”
Positions count from the first letter of the chain named. The list shows a part of the results.

T1: RBFOX1 RRM (Homo sapiens, UniProt Q9NWB1 109-208)
T1 sequence: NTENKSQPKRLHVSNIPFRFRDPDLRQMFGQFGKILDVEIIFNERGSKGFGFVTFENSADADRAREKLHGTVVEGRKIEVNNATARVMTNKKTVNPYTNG

B1: GAACACA (DNA:RNA)
RNA: GGGAGACCGGAAUUCAGAUUGUCCGAACACAUUAAAUCCCGUCGUAGCCACCA
DNA 1: CAATCTGAATTCCGGTCTCCC
DNA 2: TGGTGGCTACGACGGGATT
B2: CCCAGGU (DNA:RNA)
RNA: GGGAGACCGGAAUUCAGAUUGUCCCCCAGGUUUAAAUCCCGUCGUAGCCACCA
DNA 1: CAATCTGAATTCCGGTCTCCC
DNA 2: TGGTGGCTACGACGGGATT
B3: UUUGCCA (DNA:RNA)
RNA: B1 RNA with G25U, A26U, A27U, C28G, A29C
DNA 1: CAATCTGAATTCCGGTCTCCC
DNA 2: TGGTGGCTACGACGGGATT
B4: CGUAAUC (DNA:RNA)
RNA: B2 RNA with C26G, C27U, G29A, G30U, U31C
DNA 1: CAATCTGAATTCCGGTCTCCC
DNA 2: TGGTGGCTACGACGGGATT
B5: UCAGAAA (DNA:RNA)
RNA: B1 RNA with G25U, A26C, C28G, C30A
DNA 1: CAATCTGAATTCCGGTCTCCC
DNA 2: TGGTGGCTACGACGGGATT
B6: ACACGCG (DNA:RNA)
RNA: B1 RNA with G25A, A26C, A29G, A31G
DNA 1: CAATCTGAATTCCGGTCTCCC
DNA 2: TGGTGGCTACGACGGGATT
B7: GGAUUCU (DNA:RNA)
RNA: B1 RNA with A26G, C28U, A29U, A31U
DNA 1: CAATCTGAATTCCGGTCTCCC
DNA 2: TGGTGGCTACGACGGGATT
B8: CGAACAG (DNA:RNA)
RNA: B2 RNA with C26G, C27A, G29C, G30A, U31G
DNA 1: CAATCTGAATTCCGGTCTCCC
DNA 2: TGGTGGCTACGACGGGATT
B9: UCGAUUA (DNA:RNA)
RNA: B2 RNA with C25U, C27G, G29U, G30U, U31A
DNA 1: CAATCTGAATTCCGGTCTCCC
DNA 2: TGGTGGCTACGACGGGATT
B10: CCUUCGC (DNA:RNA)
RNA: B2 RNA with C27U, A28U, G29C, U31C
DNA 1: CAATCTGAATTCCGGTCTCCC
DNA 2: TGGTGGCTACGACGGGATT
B11: UAAGCAG (DNA:RNA)
RNA: B1 RNA with G25U, C28G, A29C, C30A, A31G
DNA 1: CAATCTGAATTCCGGTCTCCC
DNA 2: TGGTGGCTACGACGGGATT
B12: CGUAAUU (DNA:RNA)
RNA: B2 RNA with C26G, C27U, G29A, G30U
DNA 1: CAATCTGAATTCCGGTCTCCC
DNA 2: TGGTGGCTACGACGGGATT
B13: GCCAGUA (DNA:RNA)
RNA: B2 RNA with C25G, G30U, U31A
DNA 1: CAATCTGAATTCCGGTCTCCC
DNA 2: TGGTGGCTACGACGGGATT
B14: UUAAGGC (DNA:RNA)
RNA: B2 RNA with C25U, C26U, C27A, U31C
DNA 1: CAATCTGAATTCCGGTCTCCC
DNA 2: TGGTGGCTACGACGGGATT
B15: CUCGCGU (DNA:RNA)
RNA: B2 RNA with C26U, A28G, G29C
DNA 1: CAATCTGAATTCCGGTCTCCC
DNA 2: TGGTGGCTACGACGGGATT
B16: UUCCGCC (DNA:RNA)
RNA: B2 RNA with C25U, C26U, A28C, G30C, U31C
DNA 1: CAATCTGAATTCCGGTCTCCC
DNA 2: TGGTGGCTACGACGGGATT
B17: GUAAAUG (DNA:RNA)
RNA: B1 RNA with A26U, C28A, C30U, A31G
DNA 1: CAATCTGAATTCCGGTCTCCC
DNA 2: TGGTGGCTACGACGGGATT
B18: CAGAAGU (DNA:RNA)
RNA: B2 RNA with C26A, C27G, G29A
DNA 1: CAATCTGAATTCCGGTCTCCC
DNA 2: TGGTGGCTACGACGGGATT
B19: UCGCAUU (DNA:RNA)
RNA: B2 RNA with C25U, C27G, A28C, G29A, G30U
DNA 1: CAATCTGAATTCCGGTCTCCC
DNA 2: TGGTGGCTACGACGGGATT
B20: AUGGCUC (DNA:RNA)
RNA: GGGAGACCGGAAUUCAGAUUGUCCAUGGCUCUUAAAUCCCGUCGUAGCCACCA
DNA 1: CAATCTGAATTCCGGTCTCCC
DNA 2: TGGTGGCTACGACGGGATT
B21: CAAGGUG (DNA:RNA)
RNA: B20 RNA with A25C, U26A, G27A, C29G, C31G
DNA 1: CAATCTGAATTCCGGTCTCCC
DNA 2: TGGTGGCTACGACGGGATT
B22: CACUUAG (DNA:RNA)
RNA: B2 RNA with C26A, A28U, G29U, G30A, U31G
DNA 1: CAATCTGAATTCCGGTCTCCC
DNA 2: TGGTGGCTACGACGGGATT
B23: AUACUUG (DNA:RNA)
RNA: B20 RNA with G27A, G28C, C29U, C31G
DNA 1: CAATCTGAATTCCGGTCTCCC
DNA 2: TGGTGGCTACGACGGGATT
B24: CCUCUCU (DNA:RNA)
RNA: B2 RNA with C27U, A28C, G29U, G30C
DNA 1: CAATCTGAATTCCGGTCTCCC
DNA 2: TGGTGGCTACGACGGGATT
B25: UUUUAGC (DNA:RNA)
RNA: B20 RNA with A25U, G27U, G28U, C29A, U30G
DNA 1: CAATCTGAATTCCGGTCTCCC
DNA 2: TGGTGGCTACGACGGGATT
B26: GUGAGUG (DNA:RNA)
RNA: B20 RNA with A25G, G28A, C29G, C31G
DNA 1: CAATCTGAATTCCGGTCTCCC
DNA 2: TGGTGGCTACGACGGGATT
B27: UAUCAAU (DNA:RNA)
RNA: B1 RNA with G25U, A27U, C30A, A31U
DNA 1: CAATCTGAATTCCGGTCTCCC
DNA 2: TGGTGGCTACGACGGGATT
B28: GUUAGCU (DNA:RNA)
RNA: B2 RNA with C25G, C26U, C27U, G30C
DNA 1: CAATCTGAATTCCGGTCTCCC
DNA 2: TGGTGGCTACGACGGGATT
B29: CUUGAUA (DNA:RNA)
RNA: B20 RNA with A25C, G27U, C29A, C31A
DNA 1: CAATCTGAATTCCGGTCTCCC
DNA 2: TGGTGGCTACGACGGGATT
B30: AUCAAAC (DNA:RNA)
RNA: B20 RNA with G27C, G28A, C29A, U30A
DNA 1: CAATCTGAATTCCGGTCTCCC
DNA 2: TGGTGGCTACGACGGGATT
B31: GGAUGGU (DNA:RNA)
RNA: B2 RNA with C25G, C26G, C27A, A28U
DNA 1: CAATCTGAATTCCGGTCTCCC
DNA 2: TGGTGGCTACGACGGGATT

Molecular target: T1, RBFOX1 RRM
Experiment: EMSA; HiTS-Eq, 1 nM pool, 10 min; buffer printed only for the single-RNA assays: 10 mM Tris pH 7.5, 150 mM NaCl, 3.4 mM EDTA, 0.001% NP-40, 30 C
Conditions: tags: His6 N-terminal (pET28a); label: 5' 32P
In short: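 Purified RbFox RRM (wild type or mutant) was equilibrated for 10 min in 50 µL with 1 nM of a 5′-radiolabelled pool of RNA with 7 randomized nucleotides, its flanks annealed to DNA oligonucleotides, across increasing protein concentrations. Free RNA was separated by 8% native PAGE, excised, reverse-transcribed, PCR-barcoded and sequenced on an Illumina HiSeq 2500. Relative association constants came from read-count changes of each variant against the control reaction, normalised to the cognate motif.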

Binder	binding signal
B1	0.004 KA relative to UGCAUGU
B2	0.00633 KA relative to UGCAUGU
B3	0.012 KA relative to UGCAUGU
B4	0.00533 KA relative to UGCAUGU
B5	0.00502 KA relative to UGCAUGU
B6	0.00375 KA relative to UGCAUGU
B7	0.0181 KA relative to UGCAUGU
B8	0.00625 KA relative to UGCAUGU
B9	0.00702 KA relative to UGCAUGU
B10	0.0114 KA relative to UGCAUGU
B11	0.0107 KA relative to UGCAUGU
B12	0.00295 KA relative to UGCAUGU
B13	0.00844 KA relative to UGCAUGU
B14	0.00877 KA relative to UGCAUGU
B15	0.0127 KA relative to UGCAUGU
B16	0.00489 KA relative to UGCAUGU

Binder	binding signal
B17	0.00894 KA relative to UGCAUGU
B18	0.00381 KA relative to UGCAUGU
B19	0.013 KA relative to UGCAUGU
B20	0.0138 KA relative to UGCAUGU
B21	0.00971 KA relative to UGCAUGU
B22	0.00567 KA relative to UGCAUGU
B23	0.00872 KA relative to UGCAUGU
B24	0.00874 KA relative to UGCAUGU
B25	0.0132 KA relative to UGCAUGU
B26	0.0201 KA relative to UGCAUGU
B27	0.00404 KA relative to UGCAUGU
B28	0.00988 KA relative to UGCAUGU
B29	0.00758 KA relative to UGCAUGU
B30	0.000367 KA relative to UGCAUGU
B31	0.0187 KA relative to UGCAUGU
